Where “and” joins values, the source holds several entries; their conditions need not be identical. Equal values may be shown once. Out of some 230,000 compounds screened, about 3,600 (1.6%) were called active. The shares of active, inactive and inconclusive entries below differ from those in the screen. The call rests on the fitted dose curve; in most records, active means well fitted inhibition curve with a large enough effect (not every such curve was filed as active); inconclusive means small, poorly fitted or top-dose-only effect, or another doubt; inactive means no such curve, though single readings can be large or run the other way. A potency beside an inconclusive call is a rough fit, not a confirmed value.
target: Lysine-specific demethylase 4E (Homo sapiens) (UniProt B2RXH2); experiment: qHTS Assay for Inhibitors of Human Jumonji Domain Containing 2E (JMJD2E); conditions: JMJD2E catalytic domain, FDH-coupled NADH fluorescence (FDH is formaldehyde dehydrogenase); series mostly up to 57.1 µM
Further: nearly all actives have a fitted effect of over 50% in size.
Potency means the concentration at half of the fitted maximal effect; tags describe the fitted curve by direction and shape.

Sequence of UniProt B2RXH2 (B2RXH2 whole entry, looked up, the tested form may be a part): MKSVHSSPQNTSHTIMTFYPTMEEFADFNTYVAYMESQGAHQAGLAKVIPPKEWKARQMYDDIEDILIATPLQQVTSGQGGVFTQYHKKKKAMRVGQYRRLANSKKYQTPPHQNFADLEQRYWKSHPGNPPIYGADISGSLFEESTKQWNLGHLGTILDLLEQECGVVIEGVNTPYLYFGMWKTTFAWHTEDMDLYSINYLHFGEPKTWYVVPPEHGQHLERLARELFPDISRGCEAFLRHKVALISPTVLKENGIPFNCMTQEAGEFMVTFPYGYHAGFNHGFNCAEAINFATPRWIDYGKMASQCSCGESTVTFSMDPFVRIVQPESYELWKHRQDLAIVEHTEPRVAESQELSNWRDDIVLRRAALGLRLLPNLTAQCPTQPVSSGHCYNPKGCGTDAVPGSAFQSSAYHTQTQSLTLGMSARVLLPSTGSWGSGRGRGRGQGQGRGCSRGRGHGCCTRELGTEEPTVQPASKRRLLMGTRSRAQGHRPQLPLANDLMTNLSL

SMILES | Potency
CCN(C(=O)CSc1nnc2nc(C)cc(C)n12)c1ccccc1 | inconclusive: 39.8 µM [inhibitor, single point]
Cn1c(=O)c2c(nc(N/N=C/c3ccc(OC(=O)c4ccco4)cc3)n2Cc2ccccc2)n(C)c1=O | inconclusive: 28.2 µM [inhibitor, partial curve]
Clc1ccc(-n2nnc(-c3nccs3)n2)cc1Cl | active: 12.6 µM
Oc1c(CN2CCc3ccccc3C2)cc(Cl)c2cccnc12 | active: 22.4 µM
COc1ccc2c(c1OC)C(=O)OC2Nc1ncccc1C (stereo not given) | inconclusive: 35.5 µM [inhibitor, single point]
CN(C)c1ccc(NC(=O)COC(=O)CCC(=O)c2ccc(F)cc2)cc1 | inactive
O=C(COc1ccccc1O)Nc1ccccc1Cl | inactive
c1ccc(C2=Nn3c(Cn4nnc5ccccc54)nnc3SC2)cc1 | inactive
CCOC(=O)C1=C(O)C(=O)N(Cc2ccccc2)CC1 | inactive
COc1ccc(CCC(=O)N2CCN(S(=O)(=O)c3ccc4ccccc4c3)CC2)cc1 | inactive
COc1ccc(-c2nnc(NC(=O)Cc3ccccc3)s2)c(OC)c1 | inconclusive: 28.2 µM [inhibitor, partial curve]
O=c1[nH]n(-c2cccc3cccnc23)c(=O)c2ccccc12 | inactive
CCN(CC)Cc1c(O)c(Cl)cc2c(C)cc(=O)oc12 | inconclusive: 7.08 µM [inhibitor, partial curve]
Cc1ccc(NC(=O)c2cnc(N3CCN(c4ccccn4)CC3)c3ccccc23)c(Br)c1 | inconclusive: 35.5 µM [inhibitor, partial curve]
CCCNC(=O)c1sc2c(c1C(=O)Nc1ccccn1)CCCC2 | inconclusive: 25.1 µM [inhibitor, single point]
O=C(OCC(=O)N1CCc2ccccc21)c1ccccc1 | inactive
CC(C)CC1=NC(C(F)(F)F)(C(F)(F)F)c2c(n(CC(C)C)c(=O)[nH]c2=O)N1 | inactive
O=C(COc1ccc(Cl)cc1)Nc1ccc2oc(-c3ccncc3)nc2c1 | inconclusive: 28.2 µM [inhibitor, partial curve]
Cc1ccc(C(=O)OCC(=O)Nc2c(Cl)cc(S(N)(=O)=O)cc2Cl)o1 | inactive
Cc1ccc(O)c(C2=NNC(O)(C(F)(F)F)C2)c1 (stereo not given) | inactive
COc1ccc(-n2nc3cc(C)c(NC(=S)NC(=O)c4ccccc4C)cc3n2)cc1 | inconclusive: 28.2 µM [inhibitor, partial curve]
Cc1nnc(SCc2nc3scc(-c4ccccc4)c3c(=O)[nH]2)s1 | inactive
CC(=O)Nc1ccc2nc(NC(=O)c3cccs3)sc2c1 | inconclusive: 35.5 µM [inhibitor, single point]
O=C(NCC1CCCO1)C1CCN(CC2CCCCC2)CC1 (stereo not given) | inactive
CO[C@]12C[C@@H](COC(=O)c3cncc(Br)c3)CN(C)[C@@H]1Cc1cn(C)c3cccc2c13 | inconclusive: 44.7 µM [inhibitor, single point]

SMILES | Potency
CCOc1cc(/C=N/NC(=O)COc2nc(C)cc(COC)c2C#N)ccc1O | inactive
COc1ccc2cc(C(c3nnnn3Cc3ccccc3)N3CCCCCC3)c(=O)[nH]c2c1 (stereo not given) | inconclusive: 28.2 µM [inhibitor, partial curve]
Cc1ccc(-c2nc(C#N)c(NCC3CCCO3)o2)cc1 (stereo not given) | inconclusive: 25.1 µM [inhibitor, partial curve]
CCn1c(-c2ccccc2O)n[nH]c1=S | inactive
Cn1c(CO)cnc1SCc1ccc([N+](=O)[O-])cc1 | inconclusive: 39.8 µM [inhibitor, single point]
CCN(Cc1ccccc1)C(=O)C1CCN(Cc2ccc(SC)cc2)CC1 | inactive
Nc1ccc(S(=O)(=O)O)cn1 | inconclusive: 22.4 µM [inhibitor, single point] and inconclusive: 39.8 µM [inhibitor, single point]
Cc1nc(C(=O)NNC(=O)c2ccc(Cl)cc2)cs1 | inconclusive: 35.5 µM [inhibitor, single point]
CN(C)c1ccnc2sc3c(NCC(O)CO)ncnc3c12 (stereo not given) | inconclusive: 20 µM [inhibitor, partial curve]
CSc1nc(C)cc(SC(C(C)=O)C(=O)Nc2ccccc2)n1 (stereo not given) | inconclusive: 39.8 µM [inhibitor, single point]
COc1ccc(OC)c(C2=NOC(C(=O)NCc3ccco3)C2)c1 (stereo not given) | inconclusive: 25.1 µM [inhibitor, single point]
O=C(Cn1cc(C(F)(F)F)ccc1=O)N/N=C/c1ccccc1 | inactive
COc1ccc(/C=N/N=C2/CC(C)(C)Cc3n[nH]c(=O)cc32)cc1 | active: 31.6 µM
S=c1[nH]nc(-c2ccco2)n1-c1ccccc1Cl | inconclusive: 31.6 µM [inhibitor, single point]
Cc1cc(C(=O)N2CCN(c3ncccn3)CC2)c2cc(F)ccc2n1 | inconclusive: 39.8 µM [inhibitor, single point]
Cc1ccc(/C(=N/Nc2nc3ccccc3s2)C2=C(O)c3ccccc3C2=O)cc1 | inactive
CCn1c2ccccc2c2cc(/C=N/NC(=O)c3ccccc3C)ccc21 | inconclusive: 28.2 µM [inhibitor, partial curve]
CCOC(=O)N1CCC(NS(=O)(=O)c2cc(Br)cnc2N)CC1 | inconclusive: 39.8 µM [inhibitor, single point]
COC(=O)CCCC1=CC2=CC(=O)C(C)(OC(=O)c3cccs3)C(=O)C2=CN1C1CCCCC1 (stereo not given) | inconclusive: 3.98 µM [inhibitor, single point]
COc1cc(-c2nc3n(n2)C(c2ccncc2)C2=C(CCCC2=O)N3)cc(OC)c1OC (stereo not given) | inactive
CCOC(=O)c1ccc2c(c1)C1C=CCC1C(C(=O)O)N2 (stereo not given) | inconclusive: 31.6 µM [inhibitor, single point]
CCOC(=O)/C(C#N)=C1\SS/C(=C(/C#N)C(=O)OCC)S1 | inconclusive: 15.8 µM [inhibitor, partial curve]
COc1ccccc1NC(=S)Nc1cccc2cnccc12 | inconclusive: 35.5 µM [inhibitor, single point]
CCC(C)NS(=O)(=O)c1ccc(-c2csnn2)s1 (stereo not given) | inactive
COc1cccc(C(=O)NCC2CCCO2)c1 (stereo not given) | inactive

SMILES | Potency
Cc1ccc(-c2cc(C(=O)NCCCn3ccnc3)c3ccccc3n2)s1 | inconclusive: 28.2 µM [inhibitor, partial curve]
CCn1cc(C(=O)OC)c(=O)c2ccc(C)nc21 | inactive
Cc1nc(SCC(=O)Nc2ccc(F)cc2)c2oc3ccccc3c2n1 | inactive
COCCNC(=O)/C(C#N)=C/c1ccc(SC)cc1 | inconclusive: 28.2 µM [inhibitor, single point]
COc1cc(CNc2ncnc3c2[nH]c2ccc(C)cc23)cc(OC)c1 | inconclusive: 25.1 µM [inhibitor, partial curve]
c1ccc2c(c1)CCN(c1nc(CN3CCOCC3)nc3sc4c(c13)CCCC4)C2 | inconclusive: 31.6 µM [inhibitor, single point]
O=C1C=C(N2CCOCC2)C2(CCCCC2)O1 | inconclusive: 35.5 µM [inhibitor, single point]
Cc1cc(Cl)n2c(nc3cc(F)c(F)cc32)c1C#N | inconclusive: 35.5 µM [inhibitor, partial curve]
COCCn1cc(C(=O)NCc2cccs2)c2c3ccccc3n(C)c2c1=O | inconclusive: 22.4 µM [inhibitor, partial curve]
C=CCOc1c(OC)cc(/C=N/Nc2cccc(C(=O)O)c2)c(Br)c1Br | inconclusive: 25.1 µM [inhibitor, partial curve]
CCc1nnc(SCc2ccc(C(=O)OC)o2)n1N | inconclusive: 39.8 µM [inhibitor, single point]
Cc1ccc(Nc2cc(C)nn2-c2nc(C)cc(C)n2)cc1 | inactive
Cc1cccc(OCCCC(=O)Nc2ccc(Br)cc2)c1 | inactive
COc1ccc(-c2cc3nc(C)cc(N)n3n2)cc1 | inconclusive: 31.6 µM [inhibitor, partial curve]
CN(C)CCCN(C(=O)COc1ccc(Cl)cc1)c1nc2ccc(F)cc2s1 | inactive
Cc1ccc2nc(COc3ccc(N(C)S(=O)(=O)c4ccccc4)cc3)cc(=O)n2c1 | inconclusive: 31.6 µM [inhibitor, partial curve]
CCOC(=O)c1[nH]c2ccc(OC)cc2c1NC(=O)CN1CCc2ccccc2C1 | inconclusive: 28.2 µM [inhibitor, partial curve]
Cc1nc2sc(C(c3ccco3)N3CCC(C)CC3)c(O)n2n1 (stereo not given) | inactive
COc1ccc(-c2c(C)nn3c(N)c(C#N)cnc23)cc1OC | inconclusive: 31.6 µM [inhibitor, single point]
CCOc1ccc2[nH]c(=O)c(CN(CCCO)C(C)=O)cc2c1 | inconclusive: 28.2 µM [inhibitor, partial curve]
COc1ccc(Nc2nc3ccccc3c(=O)[nH]2)cc1 | inconclusive: 28.2 µM [inhibitor, partial curve]
CCOC(=O)NN1C(=O)c2ccccc2NC1c1cccc(O)c1 (stereo not given) | inconclusive: 28.2 µM [inhibitor, partial curve]
COc1cc([N+](=O)[O-])ccc1NC(=O)Cn1ccsc1=N | inactive
COc1cccc(/C=N/Nc2ccc(S(=O)(=O)O)cc2)c1O | inconclusive: 28.2 µM [inhibitor, single point]
S=C(NCCc1ccccc1)Nc1cccc2cnccc12 | inconclusive: 39.8 µM [inhibitor, single point]

— PubChem BioAssay AID2147 (National Center for Advancing Translational Sciences (NCATS), 2009)
